According to PubChem BioAssay AID651820 (National Center for Advancing Translational Sciences (NCATS), 2012):
Where “and” joins values, the source holds several entries; their conditions need not be identical. Identical values can stand only once. Hit rate of the full screen: of about 340,000 compounds, about 12,000 (3.5%) were called active. Inconclusive means that the source gave no clear call. Such entries were picked first, then a sample of the others. Calls follow the shape of the dose curve; as a rule, active = well fitted inhibition curve with a large enough effect; inconclusive = small, poorly fitted or top-dose-only effect, or another doubt; inactive = no such curve, though single readings can be large or run the other way. No potency is given beside an inconclusive call; the fits are too rough.
% is scaled to controls: 0 for no effect and ±100 for the full control effect; potency is read from the fitted curve at half-maximal effect; tags tell the direction and shape of the fitted curve.

Assay: qHTS Assay for Inhibitors of Hepatitis C Virus (HCV)
Settings: Huh7.5.1 HCVcc-Cre (HCVcc is cell-culture hepatitis C virus) infection, luciferase reporter, 44 h; activity change, negative = inhibition: at 41.8 µM (top of the series) unless noted
Method in brief: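 Luciferase read-out (15 sec integration) after a 15 min room-temperature substrate step quantifies HCVcc-Cre infection. Cells, 1,000 per well, had compound added 4 h post-plating, then virus at ~0.5 moi, and were cultured 44 h.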
With `CC(NC(=O)COC(=O)c1ccc(OCC2CCCO2)cc1)c1ccccc1Cl` (stereo unspecified) the Potency was inconclusive [inhibitor, single point]. In the case of `N#C/C(=C\C1=C(N2CCOCC2)C(=C\c2ccc(Cl)cc2)/CC1)C(=O)Nc1ccccc1F`, the Potency is reported as inconclusive [inhibitor, partial curve]. In the case of `COc1cccc(C(=O)Nc2cccc3ccccc23)c1OC`, the Potency is reported as inconclusive [inhibitor, partial curve]. In the case of `COc1cccc(NC(=S)N2CCN(S(=O)(=O)c3ccccc3)CC2)c1`, the “activity change, negative = inhibition” value is reported as inactive: 1.41%. For `COC(=O)CCN(c1ccccc1)S(=O)(=O)c1cc(-c2cc(C)no2)ccc1C`, the Potency was inconclusive [inhibitor, single point]. In the case of `CCN(CC)S(=O)(=O)N1CCC(C(=O)NCC2COc3ccccc3O2)CC1` (stereo unspecified), the Potency is reported as inconclusive [inhibitor, single point]. In the case of `CC(=O)[C@H]1CC[C@H]2[C@@H]3CC[C@H]4C[C@H](O)CC[C@]4(C)[C@H]3C(=O)C[C@]12C`, the Potency is reported as inconclusive [inhibitor, single point]. In the case of `CCCCN=c1scc(-c2ccc3c(c2)NC(=O)CO3)n1N=C1CCCC1`, the Potency is reported as active: 7.94 µM. For `Cc1sc(NC(=O)c2ccco2)c(C(Nc2ccccn2)c2ccccc2)c1C` (stereo unspecified), the Potency was active: 14.1 µM. With `CC(Nc1ccc(S(=O)(=O)N2CCN(C)CC2)cc1[N+](=O)[O-])c1ccccc1` (stereo unspecified) the Potency was inconclusive [inhibitor, partial curve, poor fit]. For `COc1cccc(C2CC(c3cccs3)=NN2S(C)(=O)=O)c1OC` (stereo unspecified), the “activity change, negative = inhibition” value was inactive: -14.1%. With `CCn1cc(CN(C)C(=O)CSc2nc(-c3ccco3)cc(C(F)(F)F)n2)c(C)n1` the Potency was inconclusive [inhibitor, single point]. With `Cc1sc(NC(=O)Cc2ccc3c(c2)OCO3)nc1-c1ccc2c(c1)CCN2C(=O)c1ccccc1F` the Potency was inconclusive [inhibitor, full curve]. In the case of `Oc1cccc(-c2nc3ccc4ccccc4c3c3c2CCC3)c1`, the Potency is reported as inconclusive [inhibitor, single point]. For `CCCc1nnc(NC(=O)CCC(=O)NCc2ccc(OC)cc2)s1`, the “activity change, negative = inhibition” value was inactive: 11.4%. With `COc1ccc(CC(=O)Nc2cccc(-c3nnc(-c4cccc(C)c4)o3)c2)cc1OC` the Potency was active: 6.31 µM. For `COc1ccccc1C(=O)NNC(=O)CCCN1C(=O)/C(=C/c2cccs2)SC1=S`, the “activity change, negative = inhibition” value was inactive: -4.45%. In the case of `COc1ccc(CNC(=O)COC(=O)c2ccc(S(=O)(=O)N3CCOCC3)cc2)cc1`, the Potency is reported as inconclusive [inhibitor, single point]. For `Cc1ccc(-c2nnc(SCc3ccccc3F)o2)cc1`, the Potency was inconclusive [inhibitor, partial curve, poor fit]. In the case of `Cc1cc(C)cc(NC(=O)CCN2CCCC2)c1`, the Potency is reported as inconclusive [inhibitor, single point]. For `COc1ccc(-c2nn(-c3ccccc3)cc2/C=N/NC(=O)c2cccc(S(=O)(=O)Nc3ccccc3Cl)c2)cc1`, the Potency was inconclusive [inhibitor, partial curve]. For `COc1cc(C(=O)Oc2ccccc2/C=N/NC(=O)c2ccc(Cl)cc2)cc(OC)c1OC`, the Potency was active: 2.82 µM. For `COC(=O)c1c(C)n(Cc2ccco2)c2ccc(O)cc12`, the Potency was inconclusive [inhibitor, partial curve]. For `Cn1cnnc1SCC(=O)Nc1ccc(OCc2ccccc2)cc1`, the “activity change, negative = inhibition” value was inactive: 8.88%. For `CCOc1cc(/C=C2/C(=O)ON=C2C)ccc1OCc1ccc(F)cc1`, the Potency was inconclusive [inhibitor, single point]. For `CC(Sc1nnc(CN2CCCC2)n1Cc1ccccc1)C(=O)Nc1ccc(F)cc1Cl` (stereo unspecified), the Potency was inconclusive [inhibitor, single point]. For `Cc1nn(C)c(C)c1NC(=O)CCSc1nc(-c2ccco2)cc(C(F)(F)F)n1`, the Potency was active: 10 µM and active: 3.98 µM. With `Clc1ccc(OCCN2CCN(c3ncnc4sccc34)CC2)cc1` the Potency was active: 0.316 µM. With `O=C(CCCCCNC(=O)N1CCn2c1nc1ccccc12)NCc1ccccc1` the “activity change, negative = inhibition” value was inactive: -26.2%. With `COc1ccc(OC)c(C(C)NC(=O)c2ccc(Br)cc2)c1` (stereo unspecified) the “activity change, negative = inhibition” value was inactive: -1.19%. With `COc1ccc(CN2Cc3cnnn3-c3ccccc3C2c2ccccc2)cc1` (stereo unspecified) the Potency was active: 1.26 µM. For `Cc1cc(C)c2c(c1)C(=O)/C(=C/c1ccc(C(=O)O)cc1)CC2`, the “activity change, negative = inhibition” value was inactive: 16.4%. For `CC(C)OC(=O)c1ccc(N2CCN(c3ccccc3F)CC2)nc1`, the Potency was active: 11.2 µM. With `O=C1c2cccc(OCc3ccc(F)cc3)c2CCN1Cc1ccccc1` the Potency was inconclusive [inhibitor, single point]. In the case of `CCn1c2ccccc2c2cc(/C=N/n3c(-c4cc(C)[nH]n4)n[nH]c3=S)ccc21`, the Potency is reported as inconclusive [inhibitor, single point]. For `O=C(COc1cccc(NC(=O)c2ccco2)c1)c1ccccc1`, the Potency was inconclusive [inhibitor, partial curve]. In the case of `O=C(NNc1nc2ccccc2s1)c1ccc(F)cc1`, the “activity change, negative = inhibition” value is reported as inactive: 0.0238%. For `CN1/C(=C\C(=O)COC(=O)c2ccc(O)cc2)C(C)(C)c2ccccc21`, the Potency was inconclusive [inhibitor, single point]. For `O=C(N/N=C/c1cc2c(cc1Br)OCO2)c1cccnc1`, the “activity change, negative = inhibition” value was inactive: -5.16%. With `N=c1c2c(n(Cc3ccc(Cl)cc3Cl)c3c1CCC3)CCCC2` the Potency was active: 10 µM. In the case of `O=S1(=O)CCOCCCN1Cc1ccccc1`, the “activity change, negative = inhibition” value is reported as inactive: 0.311%. In the case of `COc1ccc(Nc2nc(N3CCCC3)nc(N3CCCC3)n2)c(OC)c1`, the Potency is reported as active: 10 µM. For `FC(F)(F)c1cc(Nc2ccccc2)nc(-c2ccccn2)n1`, the Potency was inconclusive [inhibitor, single point]. For `O=C(CCNC(=O)c1ccco1)NCCN1C(=O)S/C(=C\c2ccc(F)cc2)C1=O`, the “activity change, negative = inhibition” value was inactive: -11.8%. For `CCc1ccc2c(c1)C1(NN=C(c3ccc(C)cc3)S1)C(=O)N2` (stereo unspecified), the Potency was active: 10 µM. With `CCc1nnc(NC(=O)CSc2ccc(-c3ccco3)nn2)s1` the “activity change, negative = inhibition” value was inactive: 9.29%. In the case of `COc1cc(NC(=O)C2=C(C)OCCS2)c(Cl)cc1C(=O)NCCN1CCN(C)CC1`, the Potency is reported as inconclusive [inhibitor, partial curve]. In the case of `CC(C)C(NC(=O)c1cccc(S(=O)(=O)N2CCOCC2)c1)C(=O)NCc1ccc(Cl)cc1` (stereo unspecified), the Potency is reported as inconclusive [inhibitor, single point]. In the case of `CCn1c(=O)cc(SCC(=O)NCc2ccc3c(c2)OCO3)c2ccccc21`, the Potency is reported as inconclusive [inhibitor, single point]. In the case of `COC(=O)c1c(NC(=O)Cc2ccccc2)sc2c1CCN(C(C)C)C2`, the Potency is reported as inconclusive [inhibitor, partial curve]. With `CC(=O)c1cn(CC(=O)Nc2ccc(C)cc2C)c2ccccc12` the Potency was active: 5.62 µM. With `CCC(=O)c1ccc(OCC(=O)Nc2cccc(S(=O)(=O)N3CCCCCC3)c2)cc1` the Potency was inconclusive [inhibitor, full curve]. In the case of `COc1ccccc1NC(=O)/C=C/c1cc([N+](=O)[O-])ccc1OC(F)F`, the Potency is reported as inconclusive [inhibitor, full curve, poor fit]. In the case of `COc1cc(CNCCc2ccc(S(N)(=O)=O)cc2)ccc1OCC(=O)NC1CCCCC1`, the Potency is reported as inconclusive [inhibitor, single point]. With `COc1ccc(CCNC(=O)CS(=O)(=O)c2cn(CC(=O)N3CCOCC3)c3ccccc23)cc1OC` the “activity change, negative = inhibition” value was inactive: 15.6%. For `O=c1ccc2ccc(Oc3ccc([N+](=O)[O-])cc3Cl)cc2o1`, the Potency was active: 11.2 µM. In the case of `CCOC(=O)c1cnc2ccccc2c1NCCc1ccc(OC)c(OC)c1`, the Potency is reported as inconclusive [inhibitor, partial curve]. For `COc1cc(S(=O)(=O)NCC2COCCO2)ccc1-n1cnnn1` (stereo unspecified), the “activity change, negative = inhibition” value was inactive: 10.7%. With `C=CC(C)(C)c1cc2cc3ccoc3cc2oc1=O` the Potency was inconclusive [inhibitor, partial curve]. For `CCN(CC)CCNC(=O)c1c(C)n(-c2ccccc2)c2cc(Br)c(OC)cc12`, the Potency was inconclusive [inhibitor, partial curve]. In the case of `COC(=O)c1ccc(C(=O)OC)c(NC(=S)N2CCN(c3ccccn3)CC2)c1`, the “activity change, negative = inhibition” value is reported as inactive: -2.2%. For `CCCCn1c(N)c(N(CC(C)C)C(=O)C(C)SCc2nc3sc(C)c(C)c3c(=O)[nH]2)c(=O)[nH]c1=O` (stereo unspecified), the “activity change, negative = inhibition” value was inactive: 17.3%. With `COc1ccc(NC(=O)CSc2nc(=O)n(CCN3CCOCC3)c3c2CCC3)cc1` the Potency was inconclusive [inhibitor, single point]. For `CC(OC(=O)/C=C/c1ccc2ccccc2n1)C(=O)N(C)c1ccccc1` (stereo unspecified), the Potency was inconclusive [inhibitor, single point]. For `CCN1CCN(C2=C(NS(=O)(=O)c3ccc(C)cc3)C(=O)c3ccccc3C2=O)CC1`, the Potency was inconclusive [inhibitor, single point]. For `CCc1ccc2c(c1)C1(NN=C(c3cccc4ccccc34)S1)C(=O)N2` (stereo unspecified), the Potency was inconclusive [inhibitor, single point]. With `O=C(C1CC2C=CC1C2)N1CCN(c2ccccc2)CC1` (stereo unspecified) the “activity change, negative = inhibition” value was inactive: 20%. For `O=c1[nH]c(-c2ccccn2)nc2ccccc12`, the Potency was inconclusive [inhibitor, single point]. With `CCc1cc(=O)oc2c3c(cc(OCC(=O)NCc4ccccn4)c12)OC(C)(C)CC3` the Potency was inconclusive [inhibitor, full curve]. In the case of `Cc1nc2ccc(NS(=O)(=O)c3ccc4c(c3)OCCO4)cc2s1`, the Potency is reported as active: 3.16 µM. In the case of `Cc1ccc2c(c1)cc1c(=O)n(CC(=O)N3CCCC3)nc(C)n12`, the “activity change, negative = inhibition” value is reported as inactive: -1.43%.
